Source: PMC3475795

Target: V5 epitope-tagged wild-type epidermal growth factor receptor (EGFR) (UniProt P00533)
Experiment: proximity ligation

- fold IR-induced increase in nuclear PLA complexes relative to untreated cells: 40 fold
Substance: S2056A-mutated DNA-PKcs ([…]A) (a stretch of the chain, chain not printed) (enzyme)
